For assay [1], the system named is cytosolic MTs in HeLa cells. The assay is described as follows: Immunofluorescence staining of α-tubulin in HeLa cells expressing spastin constructs. Particulars: HeLa cells co-transfected with EMTB-CFP-FRB. Type of assay: cell-based. Here is the method: The procedures of immunofluorescence staining are as follows. Cells cultured in borosilicate glass Lab-Tek eight-well chambers (Nunc) were fixed in 4% paraformaldehyde (Electron Microscopy Sciences) at room temperature for 15 min. Fixed cells were permeabilized with 0.1% Triton X-100 and then incubated in blocking solution (phosphate-buffered saline with 2% bovine serum albumin) for 30 min at room temperature. To label cytosolic MTs, primary ciliary membrane, and axonemal MTs, cells were incubated for 1 hr at room temperature with mouse antibody against α-tubulin (1:500; Sigma Aldrich, T6199), rabbit antibody against Arl13b (1:500; Proteintech, 17711-1-AP), mouse antibody against glutamylated tubulin (1:100; Adipogen, AG-20B-0020-C100), mouse antibody against acetylated tubulin (1:500; Sigma Aldrich, T7451), rat antibody against tyrosinated tubulin (1:100; Sigma Aldrich, MAB1864), and mouse antibody against detyrosinated tubulin (1:100; MERCK, AB3201) each of which was diluted in blocking solution. Cells were then washed with PBS and incubated for 1 hr with appropriate secondary antibodies (1:1000 dilution; Thermo Fisher) at room temperature.
Spastin is a MT-cleaving enzyme that is ubiquitous in nearly all eukaryotic cells. Expression of full-length spastin (SpastinFL-YFP; the amino acid sequence of spastin is SEQ ID NO: 1) and truncated spastin without the N-terminal 1-140 amino acids (dNSpastin-YFP) in HeLa cells removed significant amounts of cytosolic MTs, 47.45% and 42.86%, respectively, relative to YFP-transfected control cells (See FIGS. 2A to 2C). This means that both full-length spastin and truncated spastin without N-terminal 1-140 amino acids have the effect on disrupting microtubules. FIGS. 2A to 2C show the microtubule cleavage activity of artificially engineered spastin enzyme. […] The dotted line on the right indicates the periphery of the cell that expresses spastin. […] SpastinFL expressed in cells can disrupt the intracellular microtubules. […]

The subject of assay [2] is intracellular microtubules in HeLa cells. The assay is described as follows: Live-cell imaging of MT disruption (MT filament area) in transfected HeLa cells. Type of assay: cell-based. The conditions noted are these: for MT disruption on recruitment onto MTs: HeLa cells, rapamycin 100 nM, live-cell imaging. As to the method:
(§1) The procedures of live-cell imaging are as follows. Live transfected cells cultured on poly(d-lysine)-coated glass coverslips (Hecht Assistent) were treated with either 100 nM rapamycin for rapid induction of protein dimerization and translocation or MT-targeting agents (10 µM nocodazole or 500 µM colchicine) during imaging. Live-cell imaging was conducted on a Nikon T1 inverted fluorescence microscope (Nikon) with a 60× oil objective (Nikon), a Prime camera (Photometrics), and 37° C., 5% CO2 heat stage (Live Cell Instrument). Rapid recruitment of proteins of interest (POIs) was imaged at 5- or 10-sec intervals, whereas the process of MT disruption was imaged at 1-min intervals. Images were obtained using Nikon NIS-Elements AR software and processed with Huygens Deconvolution Software (Scientific Volume Imaging). Image analysis was mainly performed with Nikon NIS-Elements AR software.
The procedures of measurement of MT filament area are as follows. The MT filaments in living cells were labeled with EMTB-CFP-FRB and imaged in real time (RAW image). The rolling ball correction was used to remove the cytosol background from the RAW images, which was carried out with the Nikon NIS-Elements AR software. Images were processed to generate the binary MT filament pattern via the Otsu threshold and analyzed by Fiji software.
FIGS. 2D and 2E show rapidly recruiting engineered spastins onto MTs. […] The top three layers are cells that simultaneously express EMTB-CFP-FRB and dNSpastin3Q-YFP-FKBP. The lower three layers are cells that simultaneously express EMTB-CFP-FRB and dNSpastin-YFP-FKBP-C2Lact. The color bar on the right indicates the brightness value represented by the color of the FRET signal. […]

Assay [3] concerns EMTB-CFP-FRB-labeled MTs in HeLa cells. The assay is described as follows: Rapamycin-induced translocation of FKBP-tagged proteins onto EMTB-CFP-FRB-labeled MTs (FRET, live-cell imaging). Type of assay: cell-based. The conditions noted are these: 100 nM rapamycin, FRET signal. As to the method:
as §1
FIGS. 1B and 1C show the MT-binding domain of ensconsin-cyan fluorescent protein-FKBP-rapamycin binding domain (EMTB—CFP—FRB) localizes to cytosolic MTs. […] Scale bar, 10 µm. […] Subsequently, the addition of rapamycin to HeLa cells led to the rapid translocation of yellow fluorescent protein-tagged FKBP (YFP—FKBP) onto EMTB—CFP—FRB-labeled MTs as evidenced by an increased FRET (fluorescence resonance energy transfer) signal on MTs (T½ of translocation: 5.73 ± 0.54 sec; FIGS. 1D and 1E). […]

Assay [4] has as its system ciliary axonemes and primary cilia in NIH3T3 cells. The assay is described as follows: Disruption of primary cilia in serum-starved NIH3T3 cells (live-cell imaging). Type of assay: cell-based, mouse. Particulars: rapamycin 100 nM. Here is the method: The procedures of cell culture and transfection are as follows. African green monkey kidney cell line COS7 (CRL-1651), cervical cancer cell line HeLa (CCL-2), human osteosarcoma cell line U2OS (HTB-96), human embryonic kidney cell line HEK293T (CRL-3216), and mouse embryonic fibroblasts NIH3T3 cells (CRL-1658) were maintained at 37° C., 5% CO2, and 95% humidity in Dulbecco’s modified Eagle’s medium (DMEM) supplemented with 10% fetal bovine serum (FBS), and penicillin and streptomycin (Corning). To induce ciliogenesis, NIH3T3 cells were serum starved for 24 hr. COS7 cells were transfected with plasmid DNAs by using TurboFect transfection reagents (Thermo Fisher). HeLa, U2OS, HEK293T, and NIH3T3 cells were transfected with FuGENE HD (Promega). Transfected cells were incubated for 24-48 hr prior to imaging and other experiments.
The procedures of live-cell imaging are as follows. Live transfected cells cultured on poly(d-lysine)-coated glass coverslips (Hecht Assistent) were treated with either 100 nM rapamycin for rapid induction of protein dimerization and translocation or MT-targeting agents (10 µM nocodazole or 500 µM colchicine) during imaging. Live-cell imaging was conducted on a Nikon T1 inverted fluorescence microscope (Nikon) with a 60× oil objective (Nikon), a Prime camera (Photometrics), and 37° C., 5% CO2 heat stage (Live Cell Instrument). […]

B1: dNSpastinCD-YFP-FKBP: catalytic domain of dNSpastin without the MT-binding domain (SEQ ID NO:5), tagged with YFP-FKBP (protein)
chain: MIVDNGTAVKFDDIAGQELAKQALQEIVILPSLRPELFTGLRAPARGLLLFGPPGNGKTMLAKAVAAESNATFFNISAASLTSKYVGEGEKLVRALFAVARELQPSIIFIDEVDSLLCERREGEHDASRRLKTEFLIEFDGVQSAGDDRVLVMGATNRPQELDEAVLRRFIKRVYVSLPNEETRLLLLKNLLCKQGSPLTQKELAQLARMTDGYSGSDLTALAKDAALGPIRELKPEQVKNMSASEMRNIRLSDFTESLKKIKRSVSPQTLEAYIRWNKDFGDTT[about 100 residues omitted]
On to B1, for which the “severing activity before and after recruitment onto MTs” value in assay [1] (DMSO or rapamycin) is on record as “did not show severing activity”.

B2: dNSpastin3Q-YFP-FKBP: truncated spastin with key MT-binding residues mutated to three glutamines (SEQ ID NO:6), tagged with YFP-FKBP (protein)
chain: MESGAVPKRKDPLTHASNSLPRSKTVLKSGSAGLSGHHRAPSCSGLSMVSGARPGPGPAATTHKGTPKPNRTNKPSTPTTAVRQQQDLKNFRNVDSNLANLIMNEIVDNGTAVKFDDIAGQELAKQALQEIVILPSLRPELFTGLRAPARGLLLFGPPGNGKTMLAKAVAAESNATFFNISAASLTSKYVGEGEKLVRALFAVARELQPSIIFIDEVDSLLCERREGEHDASRRLKTEFLIEFDGVQSAGDDRVLVMGATNRPQELDEAVLRRFIKRVYVSLPNEETRLLLLKNLLCKQGSPLTQKELAQLARMTDGYSGSDLTALAKDAALGPIRELKPEQVKNMSASEMRNIRLSDFTESLKKIKRSVSPQTLEAYIRWNKDFGDTT[about 100 residues omitted]
B2: the “T½ of MT disruption” value in assay [2] (HeLa cells co-transfected with EMTB-CFP-FRB, upon rapamycin (100 nM) treatment) is reported as 11.05 ± 1.52 min. For the same molecule, in assay [2], the “MT disruption on recruitment onto MTs” value is reported as “significantly removed more MT filaments”. Besides, the “T½ of translocation from cytosol onto EMTB-CFP-FRB-labeled MTs” value in assay [3] was 1.006 ± 0.0883 min. The “MT disruption after rapamycin treatment” value in assay [1] (100 nM rapamycin 1 hr) is listed as “robustly disrupted MTs”. In assay [1] (0.1% DMSO), the “MT-severing activity before rapamycin treatment” value is “low MT-severing activities”.

B3: dNSpastin3QED-YFP-FKBP: enzyme-inactive (enzyme dead) dNSpastin3Q (SEQ ID NO:7) tagged with YFP-FKBP (protein)
chain: MESGAVPKRKDPLTHASNSLPRSKTVLKSGSAGLSGHHRAPSCSGLSMVSGARPGPGPAATTHKGTPKPNRTNKPSTPTTAVRQQQDLKNFRNVDSNLANLIMNEIVDNGTAVKFDDIAGQELAKQALQEIVILPSLRPELFTGLRAPARGLLLFGPPGNGKTMLAKAVAAESNATFFNISAASLTSKYVGEGEKLVRALFAVARELQPSIIFIDAVDSLLCERREGEHDASRRLKTEFLIEFDGVQSAGDDRVLVMGATNRPQELDEAVLRRFIKRVYVSLPNEETRLLLLKNLLCKQGSPLTQKELAQLARMTDGYSGSDLTALAKDAALGPIRELKPEQVKNMSASEMRNIRLSDFTESLKKIKRSVSPQTLEAYIRWNKDFGDTT[about 100 residues omitted]
Regarding B3, the “MT disruption on recruitment onto MTs” value in assay [2] is given as “no MT disruption”. For the same molecule, the “effect on ciliary structure when trapped on ciliary axonemes” value in assay [4] is listed as “did not perturb the ciliary structure”.

The values are drawn from patent publication US20230203471A1, “METHOD AND PLATFORM FOR DISRUPTING INTRACELLULAR MICROTUBULES” (National Tsing Hua University, priority 2021, published 2023).
